# A collection of fitness landscapes (doi:10.1016/j.celrep.2020.107928)
# The full ranking holds about 81,000 sequences; the median of “one-hybrid fitness for binding NBS DNA” is about -0.1, and the highest 2% start at about 0.36. Some of the results follow.
# B1: Caulobacter ParB omega fusion; a variant is named by its letters at X, in order, B8GW30 (parent)
# chain: MESVVVGEPGMSEGRRGLGRGLSALLGEVDAAPAQAPGEQLGGSREAPIEILQRNPDQPRRTFREEDLEDLSNSIREKGVLQPILVRPSPDTAGEYQIVAGERAWRAAQRAGLKTVPIMVRELDDLAVLEIGIIENVQRADLNVLEEALSYKVLMEKFERTQENIAQTIGKSXSHVANXMRLLXLPDEVQSYLVSGELTAXHARAIAAAADPVALAKQIIEGGLSVRETEALARKAPNLSAGKSKGGRPPRVKDTDTQALESDLSSVLGLDVSIDHRGSTGTLTITYATLEQLDDLCNRLTRGI
# Variants of: B1
# Assay: one-hybrid fitness for binding NBS DNA (the Noc-binding site; scaled: cognate 1, non-cognate 0); higher = stronger binding
# Conditions: with NBS DNA site
# Procedure, shortened: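 Pre- and post-selection plasmids were Illumina-sequenced, three replicate libraries were pooled, and any variant with under 10 reads was removed. The libraries were Caulobacter ParB with four specificity codons randomised, selected in E. coli USO through a HIS3 reporter whose site is 19 bp from the promoter. Cells grew 48 hours at 37°C on M9 without histidine, with 0.1 mM IPTG and 5 mM 3-AT. Fitness is the log change in variant-to-wild-type read ratio, rescaled against cognate and non-cognate.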
row,Variant,one-hybrid fitness for binding NBS DNA
1,VNWR,≤ 0.2
2,PNTS,≤ 0.2
3,RMMQ,≤ 0.2
4,DSAL,≤ 0.2
5,DIKG,≤ 0.2
6,CLRG,≤ 0.2
7,DLPV,≤ 0.2
8,HIAW,≤ 0.2
9,LAKS,≤ 0.2
10,YAAV,≤ 0.2
11,PTTS,≤ 0.2
12,RGLS,≤ 0.2
13,LPTW,≤ 0.2
14,PLAI,≤ 0.2
15,PLIH,≤ 0.2
16,QIYC,≤ 0.2
17,VRPM,≤ 0.2
18,SAAA,≤ 0.2
19,FIFF,≤ 0.2
20,VRMS,≤ 0.2
21,RQVH,≤ 0.2
22,CSAD,≤ 0.2
23,PFSK,≤ 0.2
24,RYCC,≤ 0.2
25,NRLV,≤ 0.2

row,Variant,one-hybrid fitness for binding NBS DNA
1,VMRT,≤ 0.2
2,LQSA,≤ 0.2
3,MTNI,≤ 0.2
4,ALSR,≤ 0.2
5,YKHK,≤ 0.2
6,QIKD,≤ 0.2
7,SQPP,≤ 0.2
8,KSQA,≤ 0.2
9,RNDS,≤ 0.2
10,DHSR,≤ 0.2
11,HATW,≤ 0.2
12,RRQP,≤ 0.2
13,DQFT,≤ 0.2
14,DESC,≤ 0.2
15,LAHQ,≤ 0.2
16,DNKG,≤ 0.2
17,THDC,≤ 0.2
18,PFSA,≤ 0.2
19,PKRS,≤ 0.2
20,SPDL,≤ 0.2
21,GFSR,≤ 0.2
22,HFPR,≤ 0.2
23,KRHE,≤ 0.2
24,VTVL,≤ 0.2
25,WYPP,≤ 0.2

row,Variant,one-hybrid fitness for binding NBS DNA
1,PFMN,≤ 0.2
2,MVYL,≤ 0.2
3,GNHT,≤ 0.2
4,RYHM,≤ 0.2
5,CHNR,≤ 0.2
6,NAMG,≤ 0.2
7,SLTL,≤ 0.2
8,DISL,≤ 0.2
9,VTNL,≤ 0.2
10,QKRL,0.262
11,NVDI,≤ 0.2
12,LFEG,≤ 0.2
13,GFKG,≤ 0.2
14,QACW,≤ 0.2
15,RNYA,≤ 0.2
16,QKNT,0.639
17,PVQW,≤ 0.2
18,NQNR,≤ 0.2
19,VRNI,≤ 0.2
20,FNSS,≤ 0.2
21,WAAN,≤ 0.2
22,TGPM,≤ 0.2
23,SKAW,≤ 0.2
24,QTLR,0.639
25,AYGA,≤ 0.2

row,Variant,one-hybrid fitness for binding NBS DNA
1,PTMR,≤ 0.2
2,AKWL,≤ 0.2
3,HLTL,≤ 0.2
4,NRTM,0.239
5,ARLS,≤ 0.2
6,ALDT,≤ 0.2
7,AWTI,≤ 0.2
8,DCRE,≤ 0.2
9,YEEE,≤ 0.2
10,KPID,≤ 0.2
11,RDCQ,≤ 0.2
12,RIGG,≤ 0.2
13,DHKS,≤ 0.2
14,PKAL,≤ 0.2
15,TAKW,≤ 0.2
16,TFCI,≤ 0.2
17,REKG,≤ 0.2
18,QASP,≤ 0.2
19,HLLI,≤ 0.2
20,NHSR,≤ 0.2
21,CACC,≤ 0.2
22,RYIL,≤ 0.2
23,NDPM,≤ 0.2
24,VSKS,≤ 0.2
25,EFWR,≤ 0.2

row,Variant,one-hybrid fitness for binding NBS DNA
1,SWDM,≤ 0.2
2,AMDY,≤ 0.2
3,FVKG,≤ 0.2
4,RHWR,0.256
5,TPCY,≤ 0.2
6,HNAW,≤ 0.2
7,TVGM,≤ 0.2
8,RFWF,≤ 0.2
9,IWLV,≤ 0.2
10,YRSS,≤ 0.2
11,RMPH,≤ 0.2
12,NTTD,≤ 0.2
13,MTWA,≤ 0.2
14,SYQR,≤ 0.2
15,GWYV,≤ 0.2
16,SIRI,≤ 0.2
17,LWYL,≤ 0.2
18,IRRT,0.423
19,GEQG,≤ 0.2
20,SDPW,≤ 0.2
21,CVMI,≤ 0.2
22,PIHM,≤ 0.2
23,SSRL,≤ 0.2
24,ETDL,≤ 0.2
25,GNRC,≤ 0.2

row,Variant,one-hybrid fitness for binding NBS DNA
1,DIVC,≤ 0.2
2,STPP,≤ 0.2
3,EPSC,≤ 0.2
4,NVTA,≤ 0.2
5,QWRC,≤ 0.2
6,HSGK,≤ 0.2
7,QLAD,≤ 0.2
8,PPAP,≤ 0.2
9,LFIG,≤ 0.2
10,PFIL,≤ 0.2
11,YPSE,≤ 0.2
12,KRNP,≤ 0.2
13,WYGK,≤ 0.2
14,IPQL,≤ 0.2
15,PCMA,≤ 0.2
16,FILS,≤ 0.2
17,FNFS,≤ 0.2
18,SYAA,≤ 0.2
19,KVLD,≤ 0.2
20,KEDC,≤ 0.2
21,SMYS,≤ 0.2
22,SRTS,≤ 0.2
23,NHKV,≤ 0.2
24,GATR,≤ 0.2
25,IAWK,≤ 0.2

row,Variant,one-hybrid fitness for binding NBS DNA
1,SSYI,≤ 0.2
2,ERGR,≤ 0.2
3,REAQ,≤ 0.2
4,QVCE,≤ 0.2
5,RFIN,≤ 0.2
6,ATFS,≤ 0.2
7,RLCY,≤ 0.2
8,LTLQ,≤ 0.2
9,NCLL,≤ 0.2
10,ARML,≤ 0.2
11,SIFW,≤ 0.2
12,IDKS,≤ 0.2
13,HSCM,≤ 0.2
14,DRKK,≤ 0.2
15,LPSH,≤ 0.2
16,RFMS,≤ 0.2
17,QCMI,≤ 0.2
18,TVFA,≤ 0.2
19,MNDA,≤ 0.2
20,GVCR,0.275
21,WEDM,≤ 0.2
22,KHMV,≤ 0.2
23,TKIG,≤ 0.2
24,LGWQ,≤ 0.2
25,LCNQ,≤ 0.2

row,Variant,one-hybrid fitness for binding NBS DNA
1,EHWM,≤ 0.2
2,SQCR,≤ 0.2
3,LVQE,≤ 0.2
4,PYFM,≤ 0.2
5,PKPR,≤ 0.2
6,KPGS,≤ 0.2
7,EMKQ,≤ 0.2
8,DSNF,≤ 0.2
9,RSGM,≤ 0.2
10,ACGL,≤ 0.2
11,DQPS,≤ 0.2
12,AEPS,≤ 0.2
13,NYTL,≤ 0.2
14,CKQF,≤ 0.2
15,PTWY,≤ 0.2
16,YQPW,≤ 0.2
17,TKDI,≤ 0.2
18,MAES,≤ 0.2
19,RYNA,0.248
20,IRKS,0.37
